Measured values published in the supplement of paper PMC11417369.
This is one part of the list.

Test system: PF3D7_0420300 AP2 domain 1 (GST-tagged)
Test: gcPBM binding intensity (ln(normalized median fluorescence intensity)); higher = stronger DNA binding
Outline: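 Binding intensity is the highest Masliner-normalised natural-log median intensity over replicate spots in either probe orientation. To obtain it, GST-tagged P. falciparum DNA-binding domains made in E. coli were incubated for 1 h on an Agilent 4 × 180k array of primer-extended double-stranded 36-bp intergenic genomic probes plus negative controls. Detection used Alexa488 anti-GST antibody with scanning at 488 nm.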

Sequence | gcPBM binding intensity (ln)
TTTTCATAATATACATGTACATATATAAATTATTAA [XGTACX_site5206] | 8.98
GTATACATGCAAATTTTTATTTACAACCCCAAAAAG [XGTACX_negctrl_site255] | 9.23
TATTATAATATGCCTTGTACATATAACAAATTTATT [XGTACX_site108] | 9.05
TTTTTTTCACAAAATACACACAATATATTTTATATC [CACACA_site1138] | 9.25
TTTATTTATTACTAAAGTACTAAATCATATTATTAT [XGTACX_site2574] | 8.83
ATGAACAAGTGGCACACACACATTATAACTAATTTA [CACACA_site5731] | 9.76
AAAATAATATTTCCTTGTACACATATGTATTTGTTC [XGTACX_site4430] | 9.45
TTCTTTTTTTTTATCACACATATTACAATCTAGTGC [CACACA_site4697] | 9.23
GAGAGGAACATTATATGTACATATTAATTCTAAAAT [XGTACX_site5433] | 9.06
ACAAATAAGTTTTATACACACATATAAGTAAATACA [CACACA_site4157] | 9.58
ACAATATTTTTTTATAAACACACATATATATAAATA [CACACA_site9175] | 9.35
TATAGTGATATATACACACACTTGTCTTGTAAAAAT [CACACA_site6594] | 9.53
TGTATAAAAATTTATACACACATTTTATATATTTCA [CACACA_site1015] | 9.32
TAATCCATAAGAAGCACACACATATATATATATTTT [CACACA_site1399] | 9.62
TATTAATTATTATGACATACATATCAGTTATTAAAA [CACACA_negctrl_site600] | 8.98
TAATGGAGAAAAAAAAAACACACGGTACATTCAAAG [CACACA_site3117] | 9.8
AAGGGAAAATAATAAAAGAAAAAGAAAAAAAAAAAA [CACACA_negctrl_site1518] | 9.21
TATATATATATATATTGTACTTTATATGTTCTTATA [XGTACX_site7545] | 9.41
TTTTATAAAGGAAAAGCATGCAGACTAAAAGATCAT [TGCATGCA_site150] | 9.28
AAATATTACATTTGTTAAATAATATGTTATACATAA [XGTACX_negctrl_site484] | 8.95
ACATTAAAAAATTGTTTGCACTATATAAAATATTAA [GTGCAC_site9728] | 8.99
AATATAAGAAAAATAACACACACATAAACATATATA [CACACA_site8899] | 10.1

Sequence | gcPBM binding intensity (ln)
TTTCTTTTCTTCTCTATTTTTTTTTCACGGCATTAT [TGCATGCA_negctrl_site484] | 9.28
ATTCATATGAAACACACACACACACCCATAAAAAAA [CACACA_site3246] | 10.1
TCTTTTCAATTTTATATGATCTTAATATTTTATGAA [GTGCAC_negctrl_site294] | 8.93
ATTTTTTACATACTCAAATGTTTTAATTTTTTATAT [CACACA_negctrl_site1213] | 9.38
TTTTTTTTTTTTTACACACACAAAATATTATAGGTA [CACACA_site7209] | 9.58
ATATATATATATATAGTGCACATTTATATAATTATT | 9.34
AAATGTGAACTATAATAATTTCAACGTCTGATATAA [TGCATGCA_negctrl_site440] | 9.15
AAATTTATAAAGAACACACACATATATATATATATA [CACACA_site48] | 9.83
CAAAACCTAATATGTACACACATATACATCACACTT [CACACA_site7480] | 9.72
TTTCTTTCGAATGCTTCACACATTACTCTTAAATAG [CACACA_site5265] | 9.26
ATTTTGTTATTATATATATATATATATATATATATA [XGTACX_negctrl_site590] | 9.07
ATTTTAAATTAAATTACACACTACGAATAATATATT [CACACA_site4016] | 9.35
ATATTTCTGTCAAGCACACATAATATTAATATATGT [CACACA_site318] | 9.24
AATAAATTATATATCACACATATATATTTATATTTA [CACACA_site5964] | 9.12
ACATATAAAATATTCACACACAAGTTATAGTTCTCG [CACACA_site3626] | 9.76
ATTTCCCCAACGTGGGTGCATATATTTATGTGTGAA [GTGCAC_site9439] | 9.27
ATTATGTGAGGTAACTAAATATGTACGTAACGAAGA [CACACA_negctrl_site1400] | 9.48
ATTATATTTTTAAGTACACACATATAAATAAATATA [CACACA_site7682] | 9.23
TATTAATTATTTTACTGTACTAATAATACTTTTATT [XGTACX_site2179] | 9.27
TAATGTATAATTAATCGTACATTAGATTGTTGTGTT [XGTACX_site52] | 9.31
ATATATATATATGTGTGTACTTAAAAATATAATGCA [XGTACX_site7753] | 9.59
ATATATATATATTATACACACGCCGAAAAAATAAAA [CACACA_site1551] | 9.53

Sequence | gcPBM binding intensity (ln)
TTACGAAAAAACAAGAGTACATGATGTTATAAAATA [XGTACX_site1412] | 9.36
TTTATTTTATCTAAAAGTACTTAAATTAGTGTATTT [XGTACX_site5696] | 9.04
CGTTGTAGGGAATGTAGTACAGTTATTATTTTATTA [XGTACX_site2429] | 9.42
TCATACATTTTCAGCCTGCACTTATATTTAATAATA [GTGCAC_site9863] | 9.31
TATATATATAAATACACACACACACCGATATATATA [CACACA_site5408] | 10.1
AAAAAAAAAAAACACACACACACACCGAAATATATA [CACACA_site4261] | 10.2
TTCAGCATAAACACTTGTACATATATACTAAAAATT [XGTACX_site7272] | 9.17
AATTTTTTTTTTTTTTTTTCTTTTGTAATAAACCAT [XGTACX_negctrl_site334] | 9.15
TAAGGAAAAAATTATAGTACATAATAAATGTATATA [XGTACX_site8328] | 9.14
ATAAATATATTTCACGCACACACACCCCAAATAAAT [CACACA_site9272] | 9.99
CAAATTTTTTATTAAACACACAAACATATATTTATA [CACACA_site6992] | 9.12
AAAAAAGAAAAGAAATCATGAAAGAATCAAATAAAG [CACACA_negctrl_site1771] | 9.36
TTTTTATATATATTCTCACACACTTTTTATTTTAAC [CACACA_site657] | 9.65
TATTAACAAAATTTTTAACACACAAAAAAAAAAAAA [CACACA_site8542] | 9.29
TTTTTTGTTATATTTGTGCGCAAAAATTGCTGCTTG | 9.01
CATAATATATTTTATGCATGCAAAGCAACCTTTTGA [TGCATGCA_site715] | 9.01
AAAATTTATGTAAAATGTACATACATAAATAAAGAT [XGTACX_site4339] | 9.36
TTTGTAAAATAATATCTTTCATGTCCTTACTAATTA [GTGCAC_negctrl_site145] | 9.21
ATTATATATATATATAAACACACATAAATATAAATA [CACACA_site8291] | 9.56
TATTTATTTAAAGGCACACATATTTTTATACTTTCT [CACACA_site3163] | 9.34
GAAAAAAAAAAAAATACACACAAATTGGTATATAAT [CACACA_site4369] | 9.56
AATACTCTATTTTATAGTACATATATTATTAATCAC [XGTACX_site6622] | 9.28

Sequence | gcPBM binding intensity (ln)
TAGCTCGTTCGGAGCACACACATATAAATAAATATA [CACACA_site7002] | 9.2
TATCAAATCCAAAGGGGTACATTTTGTTGTCCTAAT [XGTACX_site5575] | 9.13
TAGGGATTATACCACACACACATACCCATAAATATA [CACACA_site5719] | 9.85
ATAGACAGCGCACAAACACACAAACACGCACGCACA [CACACA_site6349] | 9.6
TGTTTTTTATTTAATTGTACGAATTAAAAAAAATAA [XGTACX_site3009] | 8.78
AATATTCATATGCAGGTGCATTAATTTTTATTAATT | 9.22
TTCCAACCATAGTATTCACACATTGTTTTATTCCAT [CACACA_site4927] | 9.5
TTTCGTAAACAAATTTGTACGTACAAATTTATAAAT [XGTACX_site8175] | 9.01
TTTTTACTAATAAGATGTACATATATCCTAAGCATA [XGTACX_site251] | 9.09
TACATACATACATACACACATACATATATATATATA [CACACA_site1387] | 9.52
TCTTTTATTAGTAAAAGTACTTATATAAATATTATA [XGTACX_site5099] | 8.96
ATAATATAATAAACGTGTACACAATTAAATTATTAT [XGTACX_site3491] | 9.5
TTTTTATTACTTCTCTGTACTCAGGAAAATAAATAT [XGTACX_site2092] | 8.95
TGAATGTAAGAAAATACACACTAGTATAGTAACACC [CACACA_site5131] | 9.82
TTGATTATAATTAGTACACACAAAATACATGCGGGG [CACACA_site2277] | 9.68
AAATATATAATACATATGTAATATGCATATATATAT [GTGCAC_negctrl_site450] | 9.24
TATTTACATGTAAAAGGTACACACATTATATATACA [XGTACX_site2157] | 9.62
TTTATTATTTTTTGTAGTACTTTATATAAAAGTTCT [XGTACX_site4494] | 9.07
ATACACTTTTATATATCAATACATTATGTATTAAGT [CACACA_negctrl_site421] | 9.21
CCTCTTTATTTTAATTGTACATTTTTGTAGGTTTTT [XGTACX_site7130] | 9.5
ATGTATATATATATATGTACTAATTAGTAATTTACG [XGTACX_site6276] | 9.37
AAAACAAACCCATTTACACACATAAATAAATCAATT [CACACA_site6126] | 9.79
